Experimental data from PubChem BioAssay AID504937 (National Center for Advancing Translational Sciences (NCATS), 2011).
“And” between values parts separate entries of the source, which are not always exact repeats. Identical values can stand only once. About 20 (0.006%) of roughly 340,000 compounds were called active. The shares of active, inactive and inconclusive entries below differ from those in the screen. The call rests on the fitted dose curve; in most records, active means well fitted inhibition curve with a large enough effect; inconclusive means small, poorly fitted or top-dose-only effect; inactive means no such curve, though single readings can be large or run the other way. Potencies beside an inconclusive call are fits to weak or partial responses and may not hold up.
Potency means the concentration at half of the fitted maximal effect; tags describe the fitted curve by direction and shape.

Each compound was assayed against Sphingomyelin phosphodiesterase (Homo sapiens) (UniProt P17405) (assay: Inhibitors of Secretory Acid Sphingomyelinase (S-ASM): qHTS). Conditions: placental ASM, HMU-PC fluorogenic substrate (series up to 57.5 µM), 60 min.
UniProt P17405, sequence (P17405 whole entry, looked up): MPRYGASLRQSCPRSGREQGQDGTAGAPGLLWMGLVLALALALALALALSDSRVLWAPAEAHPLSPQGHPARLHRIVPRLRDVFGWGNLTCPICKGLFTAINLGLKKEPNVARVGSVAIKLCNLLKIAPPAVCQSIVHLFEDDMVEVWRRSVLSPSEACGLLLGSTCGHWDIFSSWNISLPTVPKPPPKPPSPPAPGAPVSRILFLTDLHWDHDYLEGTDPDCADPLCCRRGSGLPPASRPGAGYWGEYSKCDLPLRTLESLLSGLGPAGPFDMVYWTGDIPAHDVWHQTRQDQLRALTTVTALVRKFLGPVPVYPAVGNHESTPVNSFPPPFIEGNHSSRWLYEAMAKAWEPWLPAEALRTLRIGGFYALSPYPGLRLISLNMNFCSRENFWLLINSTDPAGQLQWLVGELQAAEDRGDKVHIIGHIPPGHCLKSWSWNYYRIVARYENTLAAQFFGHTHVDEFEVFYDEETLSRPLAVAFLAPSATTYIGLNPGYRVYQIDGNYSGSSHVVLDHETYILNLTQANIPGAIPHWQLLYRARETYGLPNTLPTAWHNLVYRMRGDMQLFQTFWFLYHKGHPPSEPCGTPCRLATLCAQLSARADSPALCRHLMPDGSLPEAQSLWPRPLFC
In short: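 qHTS format. ASM enzyme prepared from human placenta hydrolyses the fluorogenic substrate HMU-PC0 (9 uM final) over 60 min at 37 °C after a 10 min compound preincubation.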
In the case of `Cc1nc(NCc2ccco2)c2c(C)c(C)sc2n1`, the Potency is reported as “inactive”.
For `C/C=C/c1ccc(OCC(=O)O)c(OC)c1`, the Potency was “inactive”.
`Cc1cc(Nc2ccc(Cl)cc2)nc(N)n1` was tested, and the Potency was “inactive”.
For `Nc1c(S(=O)(=O)O)cc(NC(=O)c2ccccc2)c2c1C(=O)c1ccccc1C2=O`, the Potency was inconclusive: 25.1 µM [inhibitor, partial curve, poor fit].
With `CC1=C(C(=O)OCc2ccccc2)C(c2ccc(C(C)(C)C)cc2)NC(=O)N1CCCCCC(=O)O` (configuration not stated) the Potency was inconclusive: 891 µM [inhibitor, partial curve, poor fit].
For `COc1ccc(-c2nnc(N3CCOCC3)c3ccccc23)cc1`, the Potency was “inactive”.
`CCOC(=O)C1=C(C)NC2=C(C1c1ccc([N+](=O)[O-])cc1)S(=O)(=O)c1ccccc12` (configuration not stated) was tested, and the Potency was inconclusive: 89.1 µM [inhibitor, single point].
In the case of `CC1(C)Cc2c(sc3ncn4c(=S)[nH]nc4c23)CO1`, the Potency is reported as “inactive”.
With `COCCn1c(C)cc(C(=O)COC(=O)c2ccccc2Br)c1C` the Potency was “inactive”.
With `O=C(OCc1c(-c2ccccc2)ncc2ccccc12)c1ccc(F)cc1` the Potency was inconclusive: 112 µM [inhibitor, partial curve, poor fit].
In the case of `Cc1ccc(NS(=O)(=O)c2cc([N+](=O)[O-])ccc2NNC(=S)Nc2cc(C)ccc2C)c(C)c1`, the Potency is reported as inconclusive: 316 µM [inhibitor, partial curve, poor fit].
With `O=C(c1ccc(O)cc1)c1ccc(C(=O)c2ccc(O)cc2)cc1` the Potency was “inactive”.
With `C#CCOCCOCCOCCNc1nc(N2CCN(C(=O)CCCCCCCCCCNC(=O)[C@@H](CCSC)n3cc(CCO)nn3)CC2)nc(N2CCN(C(=O)CCCCCCCCCCNC(=O)[C@H]([C@@H](C)CC)n3cc(CCCCN=C(N)N)nn3)CC2)n1` the Potency was inconclusive: 100 µM [inhibitor, single point].
In the case of `C[C@H](CO)N1C[C@H](C)[C@@H](CN(C)Cc2ccc(-c3ccccc3)cc2)Oc2c(NC(=O)Cc3ccccc3)cccc2C1=O`, the Potency is reported as inconclusive: 44.7 µM [inhibitor, partial curve].
For `CCOc1cc(/C=C(/NC(C)=O)C(=O)O)cc(Cl)c1OCc1ccc(Br)cc1`, the Potency was inconclusive: 70.8 µM [inhibitor, partial curve, poor fit].
`CCC(C)Nc1nc(N)c([N+](=O)[O-])c(Nc2cc(OC)ccc2OC)n1` (configuration not stated) was tested, and the Potency was inconclusive: 251 µM [inhibitor, partial curve, poor fit].
`CCCSc1nsc(NC(=O)c2cccnc2OCC)n1` was tested, and the Potency was inconclusive: 56.2 µM [inhibitor, partial curve].
`COC(=O)CSc1cc(SCC(=O)OC)c(C#N)c(SCC(=O)OC)c1` was tested, and the Potency was “inactive”.
`CCOC(=O)c1ccccc1NC(=S)N1CCC(C(N)=O)CC1` was tested, and the Potency was “inactive”.
For `C=CCn1c(O)c(N=NC(=S)Nc2ccc(OC)cc2)c2ccccc21`, the Potency was “inactive”.
`Cc1nc(NC(C)c2ccccc2)c2c3c(sc2n1)CCC3` (configuration not stated) was tested, and the Potency was inconclusive: 112 µM [inhibitor, partial curve, poor fit].
In the case of `CCN(CC)S(=O)(=O)c1ccc(N=Nc2c(C)[nH]n(C(N)=S)c2=O)cc1`, the Potency is reported as inconclusive: 251 µM [inhibitor, partial curve, poor fit].
In the case of `CS(=O)(=O)c1ccc2c(c1)sc1nc(=O)c(/C=C3/C=CC(=O)C(O)=C3)c(N)n12`, the Potency is reported as “inactive”.
In the case of `O=C(O)CCCn1c(=S)[nH]c2c(sc3ccc([N+](=O)[O-])cc32)c1=O`, the Potency is reported as inconclusive: 89.1 µM [inhibitor, single point].
For `O=C1CCCc2oc3c(cc(NS(=O)(=O)c4ccc5c6c(cccc46)C(=O)N5)c4ccccc43)c21`, the Potency was inconclusive: 112 µM [inhibitor, partial curve, poor fit].
With `CCC(C)(C)n1nnnc1C(c1cc2cc(OC)c(OC)cc2[nH]c1=O)N1CCc2ccccc21` (configuration not stated) the Potency was inconclusive: 224 µM [inhibitor, partial curve, poor fit].
With `CCN(CC)CCCN(Cc1cc2cc(OC)ccc2[nH]c1=O)C(=O)Nc1ccccc1` the Potency was “inactive”.
In the case of `Cc1ccc(NCCN(C)C)c2c(=O)c3cc(O)ccc3sc12`, the Potency is reported as inconclusive: 89.1 µM [inhibitor, single point].
In the case of `CCCc1nc(SCC(=O)N2CCC(Cc3ccccc3)CC2)c2c(=O)n(C)c(=O)n(C)c2n1`, the Potency is reported as inconclusive: 79.4 µM [inhibitor, partial curve].
In the case of `CCCCNc1c(-c2ccc(SC3CCCCC3)c(OC)c2)nc2ccc(Cl)cn12`, the Potency is reported as “inactive”.
With `Cc1ccc(Cn2c(SCC(C)C)nc3c2c(=O)n(C)c(=O)n3C)cc1` the Potency was inconclusive: 100 µM [inhibitor, partial curve, poor fit].
With `C/C(=N/Nc1ccc(C(=O)c2c(C)cc3ccccn23)cc1[N+](=O)[O-])c1ccc(O)cc1` the Potency was inconclusive: 251 µM [inhibitor, partial curve, poor fit].
For `COc1ccccc1Nc1nc(N)nc(CN2CCN(Cc3ccccc3)CC2)n1`, the Potency was “inactive”.
For `COc1ccc(N=c2cc(-c3ccc(OC)cc3)oc3ccccc23)cc1`, the Potency was inconclusive: 89.1 µM [inhibitor, single point].
For `Cc1ccc(NC(=O)Cn2c(O)c(N=NS(=O)(=O)c3ccc(C)cc3)c3ccccc32)cc1`, the Potency was inconclusive: 56.2 µM [inhibitor, single point].
In the case of `COc1ccc(OCC(O)Cn2cnc(-c3ccc(Br)cc3)c2)cc1` (configuration not stated), the Potency is reported as inconclusive: 251 µM [inhibitor, partial curve, poor fit].
In the case of `CCn1nc(C)c(/C=N/NC(=O)Cn2nnnc2N)c1C`, the Potency is reported as “inactive”.
With `CCCCCCCCCCCCCCCCn1cc[n+](C)c1` the Potency was inconclusive: 63.1 µM [inhibitor, single point] and inconclusive: 79.4 µM [inhibitor, single point].
In the case of `CCc1ccc2nc(NC(=O)CSCc3c(C)noc3C)sc2c1`, the Potency is reported as inconclusive: 70.8 µM [inhibitor, partial curve, poor fit].
With `Cc1nc(SCc2nc3ccccc3[nH]2)c2oc3ccccc3c2n1` the Potency was inconclusive: 89.1 µM [inhibitor, partial curve].
With `COc1ccc(-c2nc(NC(C)=O)sc2-c2ccccc2)cc1` the Potency was inconclusive: 89.1 µM [inhibitor, single point].
In the case of `N#Cc1ccc(NC(=O)c2cc(S(=O)(=O)N3CCOCC3)ccc2N2CCCC2)cc1`, the Potency is reported as “inactive”.
For `C[C@H](O)[C@@H]1C(=O)N2CCc3ccc(-c4cccc(F)c4)cc3[C@@H]2C[C@@H]1N(C)C(=O)C(C)(C)C`, the Potency was inconclusive: 794 µM [inhibitor, partial curve, poor fit].
`CC(=O)Nc1ccc(N/C=C/C(=O)c2ccc(C)cc2)cc1` was tested, and the Potency was “inactive”.
With `COC(=O)c1cc(NC(=O)CC2SC(=Nc3ccccc3)N(CCc3c[nH]c4ccccc34)C2=O)cc(C(=O)OC)c1` (configuration not stated) the Potency was inconclusive: 89.1 µM [inhibitor, partial curve, poor fit].
With `Cc1cc(NC(=O)c2cc3n(n2)C(C(F)(F)F)CC(c2ccc(Cl)c(Cl)c2)N3)no1` (configuration not stated) the Potency was inconclusive: 126 µM [inhibitor, partial curve, poor fit].
With `CC(=O)OCC(=O)Nc1ccc(N=Nc2ccccc2)cc1` the Potency was inconclusive: 282 µM [inhibitor, partial curve, poor fit].
For `Cc1c(C)c2ccc(OCC(=O)Nc3ccc(S(N)(=O)=O)cc3)c(C)c2oc1=O`, the Potency was inconclusive: 200 µM [inhibitor, partial curve, poor fit].
With `CC(C)(C)c1ccc(Cn2nnc3c(=O)[nH]c(C4CCCN(C(=O)c5cccs5)C4)nc32)cc1` (configuration not stated) the Potency was inconclusive: 100 µM [inhibitor, partial curve, poor fit].
With `COc1ccc(/C=N/NC(=O)c2cccc([N+](=O)[O-])c2)cc1OC(=O)c1ccc(C)cc1` the Potency was “inactive”.
In the case of `O=C(/C=C/c1cccc(Br)c1)N1CCN(c2cccc(C(F)(F)F)c2)CC1`, the Potency is reported as inconclusive: 224 µM [inhibitor, partial curve, poor fit].
`Oc1ccc(N=Nc2c(O)ccc3ccccc23)cc1` was tested, and the Potency was inconclusive: 79.4 µM [inhibitor, partial curve].
For `O=C(/C=C/c1cc[n+](CC(=O)c2ccc3cccc4c3c2CC4)cc1)c1ccc2cccc3c2c1CC3`, the Potency was inconclusive: 56.2 µM [inhibitor, single point].
`CC(=O)c1ccc(N2CCN(S(=O)(=O)c3ccc4c(c3)CC(C)N4C(=O)C3CC3)CC2)cc1` (configuration not stated) was tested, and the Potency was “inactive”.
With `CCCCC(=O)NC(c1ccc(N(CC)CC)cc1)c1ccc2cccnc2c1O` (configuration not stated) the Potency was “inactive”.
With `COc1cc(/C=C/C(=O)c2ccccc2O)cc(OC)c1OC` the Potency was inconclusive: 316 µM [inhibitor, partial curve, poor fit].
With `COc1cccc(-c2nc(NC(C)C)c3ccccc3n2)c1O` the Potency was inconclusive: 100 µM [inhibitor, partial curve, poor fit].
For `Cc1ccc(N(C(=O)c2ccccc2Cl)C2=NC(C)CS2)c(C)c1` (configuration not stated), the Potency was inconclusive: 398 µM [inhibitor, partial curve, poor fit].
For `CCCN1C2=C(C(=O)CC(C)(C)C2)C(c2ccc(F)cc2)C2=C1c1ccccc1C2=O` (configuration not stated), the Potency was inconclusive: 355 µM [inhibitor, partial curve, poor fit].
`CCOC(=O)[C@H]1[C@H]2COc3cc(OC)ccc3[C@@H]2N2C(=O)CN(Cc3ccc(C)cc3)C(=O)[C@@]12C` was tested, and the Potency was “inactive”.
In the case of `CCC(CO)[n+]1c(C)cc(/C=C2\Sc3ccccc3N2Cc2ccccc2)cc1C` (configuration not stated), the Potency is reported as inconclusive: 100 µM [inhibitor, single point].
In the case of `Cn1cc(CCC(=O)NCc2cccc(Cl)c2)c2ccccc21`, the Potency is reported as “inactive”.
